Experimental data published in ChEMBL document CHEMBL4888484, “Replenishing the malaria drug discovery pipeline: Screening and hit evaluation of the MMV Hit Generation Library 1 (HGL1) against asexual blood stage Plasmodium falciparum ,using a nano luciferase reporter read-out” (2022).
Hit rate of the full screen: of about 150,000 compounds, about 540 (0.36%) showed an effect of 50% or more. The list shows a part of the results.

Tested on: Plasmodium falciparum
Test: Primary screen in NF54 nanoGlo assay, in single point, at 2uM, 72h; a lower Z score goes with more inhibition
Assay type: functional, Erythrocyte
Conditions: timepoint 72 hour

SMILES	% Inhibition [%]	Z score
COc1ccc(C(=O)N2C[C@H]3COCC[C@@]3(O)[C@@H]3COCC[C@@H]32)cc1O	-10	0.89
CCOc1ncccc1C(=O)N1CCn2cncc2C1	-3	0.55
COc1ccc2c(c1)C(=O)N(Cc1ccccc1)C1CCCCC21 (centres undefined)	-18	2.11
CN1CCN(c2ccccc2NC(=O)N[C@@H]2CCCC[C@H]2NC(=O)OC(C)(C)C)CC1	-3	0.39
CC1(C)O[C@@H]2C[C@@](OCc3ccccc3F)(C(=O)NC3CC3)CC(OCc3cccc(Cl)c3)[C@@H]2O1 (some centres undefined)	-12	1.61
Cc1cc(C)c(C#N)c(N2CCn3nc([C@H](O)c4nccn4C)cc3C2)n1	-4	0.57
O=C(Nc1cccnc1)c1cccc(Oc2cccc(C(F)(F)F)c2)c1	-13	1.85
FC(F)(F)c1cc(-c2ccco2)n(-c2nc(-c3ccc(Cl)cc3)cs2)n1	-9	1.43
Cc1ccc([C@@H]2C[C@H](c3cccc(Cl)c3)n3nc(N)nc3N2)cc1	3	-0.37
CCC(CC)n1ncc(C)c1NC(=O)C[C@H]1CCC(=O)N1	4	-0.65
C[C@@H](C1CCN(C(=O)c2cccc(N)n2)CC1)N1CCN(C)CC1	-14	1.52
Cc1nc([C@H]2C[C@@H]2c2ccccc2)n(CC(C)(C)O)n1	1	-0.17
O=C(CN1CCO[C@H]2CCCC[C@@H]21)NCc1cccs1	10	-1.79
O=C(CC(=O)NC1CCCCC1)NC1CCCCC1	-1	0.12
Cc1nccn1CCC(=O)NCC1(CO)CCC1	-20	2.06
O=C(CC1CC2CCC1C2)N1CCC2(CC1)C(F)(F)C2(F)F (centres undefined)	-18	2.01
C[C@@H]1CN(S(=O)(=O)c2cnn(C)c2)C[C@H](C)N1CC(F)(F)F	-10	1.61
O=C(CCCc1ccccc1)Nc1ccc2c(c1)C(=O)N1CCC[C@H]1C(=O)N2	-6	0.82
CCCc1noc(-c2cn(C3CCN(C(=O)c4cccc(C#N)c4)CC3)nn2)n1	-1	0.12
Cc1cccnc1C(=O)N1CCC2(CC1)C[C@@H]2NC(=O)C(C)C	1	-0.09
COc1cccc(CNc2nc(-c3cccc(OC)c3)no2)c1	-10	1.52

SMILES	% Inhibition [%]	Z score
COC(=O)C(C)N1CC(OC)C(OC)C1 (centres undefined)	-1	0.1
OCC1CCCCC1NCc1nc(C(F)(F)F)cs1 (centres undefined)	-7	1.29
CN(CC(=O)NCCCn1cc(Cl)cn1)Cc1ccccn1	-8	1.55
CCN1CCC(NC(=O)N2CCCC2C2CCC2)CC1C (centres undefined)	-3	0.28
CN(Cc1cnccn1)C(=O)C1(Cc2ccc(F)cc2)CCOCC1	7	-0.96
CC(C)(C)c1ccc(=O)n(CC2CN(C3CCCC3O)C2)n1 (centres undefined)	-6	0.83
CCCCCC(=O)N1CC[C@@H](CC(=O)O)[C@@H](Cc2nc3ccc(C)cc3[nH]2)C1	27	-3.02
COc1ccc(NC(=O)c2cc3c(=O)n(C)ccc3n2C)cc1OC	-20	1.97
Cc1[nH]ccc1C(=O)N1CCOC[C@@H]1CC(=O)c1ccco1	-2	0.23
Cc1ccccc1N1CCN(C(=O)c2ccc3sc(N)nc3c2)CC1	6	-0.91
Oc1cccc(CN[C@H]2CCCc3occc32)c1Cl	78	-12.81
COc1cc(CC(=O)N2CC[C@H](c3ccc4c(c3)OCO4)C2)ccc1O	-11	1.74
Cc1ccc([C@@H](NC(=O)NCC(=O)NC2CC2)c2cccnc2)c(C)c1	5	-0.58
COc1ccc(Cn2nnc(C(=O)N[C@@H](C)c3nccn3C)c2C)cc1	-6	1.02
O=C(NCCNCc1c[nH]c2ccccc12)c1cccs1	-31	3.59
CCc1nnc(CN(CC)C(=O)CCN2CCCCO2)o1	-4	0.79
Cc1cc(CN(C)C)cc(NC(=O)[C@H]2CCc3[nH]nnc3C2)c1	0	0.03
O=C(N[C@H](c1ccc2c(c1)OCCO2)C(F)(F)F)c1ccccc1Cl	-3	0.28
C[C@@H](Cn1cccn1)NC(=O)c1cc(Cl)c(Cl)n1C	0	0.04
OCC[C@H]1CN(Cc2cccc3c2OCO3)CCN1Cc1ccc(F)c(F)c1	-34	3.04
CCC(CC)C1CC(NCc2cncs2)CCO1 (centres undefined)	-8	1.03
